{"source": "paper PMC4336329", "about": "(PLoS ONE, 2015)", "note": "In all, about 310,000 compounds went through this assay and about 14,000 (4.5%) showed an effect of 50% or more. The effect is printed as a negative number. This is one part of the list.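 Further: peak tail current of the secondary pulse compared with the same well before compound.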", "data": [{"biological_target": "human ether-à-go-go-related gene (hERG) potassium channel (human, UniProt Q12809)", "sequence (Q12809 whole entry, looked up)": "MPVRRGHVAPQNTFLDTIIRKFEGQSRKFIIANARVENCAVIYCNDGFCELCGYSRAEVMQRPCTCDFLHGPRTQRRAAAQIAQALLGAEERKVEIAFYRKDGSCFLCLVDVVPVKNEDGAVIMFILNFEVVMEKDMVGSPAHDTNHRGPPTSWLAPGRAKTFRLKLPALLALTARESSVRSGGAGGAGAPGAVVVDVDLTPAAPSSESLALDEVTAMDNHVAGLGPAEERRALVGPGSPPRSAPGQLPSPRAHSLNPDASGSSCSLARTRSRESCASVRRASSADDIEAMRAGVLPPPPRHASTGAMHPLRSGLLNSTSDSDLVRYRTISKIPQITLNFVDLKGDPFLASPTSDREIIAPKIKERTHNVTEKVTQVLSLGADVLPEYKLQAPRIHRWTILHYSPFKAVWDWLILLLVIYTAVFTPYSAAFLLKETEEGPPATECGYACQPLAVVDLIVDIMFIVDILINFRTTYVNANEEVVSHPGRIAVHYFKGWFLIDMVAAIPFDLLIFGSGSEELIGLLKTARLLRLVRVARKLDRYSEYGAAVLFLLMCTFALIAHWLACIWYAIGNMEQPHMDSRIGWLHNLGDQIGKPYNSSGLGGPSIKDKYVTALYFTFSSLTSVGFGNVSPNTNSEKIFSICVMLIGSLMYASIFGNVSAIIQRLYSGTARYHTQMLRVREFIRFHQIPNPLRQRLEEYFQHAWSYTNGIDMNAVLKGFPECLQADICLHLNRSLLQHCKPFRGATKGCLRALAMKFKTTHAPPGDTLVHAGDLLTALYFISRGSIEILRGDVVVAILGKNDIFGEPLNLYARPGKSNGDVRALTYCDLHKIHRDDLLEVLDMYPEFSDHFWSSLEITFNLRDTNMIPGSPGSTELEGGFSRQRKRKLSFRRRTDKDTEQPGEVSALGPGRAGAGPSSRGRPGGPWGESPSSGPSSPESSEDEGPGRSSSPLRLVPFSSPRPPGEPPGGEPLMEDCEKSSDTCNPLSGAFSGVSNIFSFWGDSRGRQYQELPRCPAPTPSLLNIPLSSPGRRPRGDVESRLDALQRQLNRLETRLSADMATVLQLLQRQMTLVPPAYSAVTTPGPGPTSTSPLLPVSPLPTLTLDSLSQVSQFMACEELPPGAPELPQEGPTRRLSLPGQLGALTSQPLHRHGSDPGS", "experiment": "primary screen, population patch clamp on CHO cells stably expressing hERG", "units": {"hERG current change (%, negative = inhibition) at 10uM": "%"}, "values": [{"smiles": "COc1cccc(-c2nnc3n2N=C(c2cccc(Br)c2)CS3)c1", "hERG current change (%, negative = inhibition) at 10uM": 6.32}, {"smiles": "Cl.Oc1ccc(C2=CCNCC2)cc1O", "hERG current change (%, negative = inhibition) at 10uM": 10.1}, {"smiles": "CCN(CCCNC(=O)CCn1c(=O)[nH]c2ccccc2c1=O)c1ccccc1", "hERG current change (%, negative = inhibition) at 10uM": 0.927}, {"smiles": "CSCC[C@H](Nc1ncnc2sc(C)c(C)c12)C(=O)O", "hERG current change (%, negative = inhibition) at 10uM": 7.25}, {"smiles": "CCn1cc(CN2CCCC(CO)(Cc3cccc(Cl)c3)C2)cn1", "note": "(stereo not drawn)", "hERG current change (%, negative = inhibition) at 10uM": -10.8}, {"smiles": "CCOc1ccc(NC(=O)Nc2cc(C(=O)O)ccc2N2CC3CC(C2)c2cccc(=O)n2C3)cc1", "note": "(stereo not drawn)", "hERG current change (%, negative = inhibition) at 10uM": 12.4}, {"smiles": "COC(=O)c1[nH]c2c(c1C)C(=O)CC(c1ccccc1)C2", "note": "(stereo not drawn)", "hERG current change (%, negative = inhibition) at 10uM": 4.41}, {"smiles": "Cn1cc([N+](=O)[O-])c(C(=O)Nc2cnn(Cc3ccc(F)cc3)c2)n1", "hERG current change (%, negative = inhibition) at 10uM": 2.14}, {"smiles": "Cn1nnnc1SCC(=O)NCc1cccs1", "hERG current change (%, negative = inhibition) at 10uM": 17.5}, {"smiles": "CCNC(=S)N(Cc1ccc2c(c1)OCO2)C1CC(=O)N(c2ccc(F)cc2)C1=O", "note": "(stereo not drawn)", "hERG current change (%, negative = inhibition) at 10uM": -14.4}, {"smiles": "COc1ccc(C2=CC(=O)OC3(CCCCC3)O2)cc1", "hERG current change (%, negative = inhibition) at 10uM": -32.3}, {"smiles": "O=C(CC12CC3CC(CC(C3)C1)C2)NCc1ccncc1", "hERG current change (%, negative = inhibition) at 10uM": -10.1}, {"smiles": "COc1ccc(CNC(=O)c2cc(-c3ccco3)on2)cc1", "hERG current change (%, negative = inhibition) at 10uM": 4.79}, {"smiles": "O=C(CCl)NN=C(c1ccccc1)c1ccccc1", "hERG current change (%, negative = inhibition) at 10uM": 0.333}, {"smiles": "Cc1ccc2cc3cc(C(=O)N4CCCCC4C)oc3nc2c1", "note": "(stereo not drawn)", "hERG current change (%, negative = inhibition) at 10uM": -12.1}, {"smiles": "O=C(CNC(=O)N1CC(=O)Nc2ccccc21)NCc1cccc(Cl)c1", "hERG current change (%, negative = inhibition) at 10uM": 12.8}, {"smiles": "O=C(c1ccc(Cl)cc1)N1CCN(c2cc(=O)[nH]nc2-c2ccccc2)CC1", "hERG current change (%, negative = inhibition) at 10uM": -58.3}, {"smiles": "CCC(=O)Nc1ccc(C(=O)COC(=O)c2nc3nccc(C)n3n2)cc1", "hERG current change (%, negative = inhibition) at 10uM": 2.6}, {"smiles": "O=C(OCC(=O)c1ccc(Cl)s1)c1cnccn1", "hERG current change (%, negative = inhibition) at 10uM": 7.24}, {"smiles": "N#CCSc1nc2ccccc2c(=O)n1C1CCCCC1", "hERG current change (%, negative = inhibition) at 10uM": -2.73}, {"smiles": "Cc1sc2nc(-c3cccnc3)[nH]c(=O)c2c1-c1ccccc1", "hERG current change (%, negative = inhibition) at 10uM": -4.06}, {"smiles": "CCc1cccc(CC)c1NC(=O)COC(=O)c1ccccc1-c1nc2ccccc2s1", "hERG current change (%, negative = inhibition) at 10uM": 5.72}, {"smiles": "COc1ccc(Cl)cc1C(=O)N1CCC2(CC1)CC(=O)c1ccccc1O2", "hERG current change (%, negative = inhibition) at 10uM": -80.5}, {"smiles": "CCOCCCNC(=S)N1CCCN(c2nc3cc(C)ccc3cc2C#N)CC1", "hERG current change (%, negative = inhibition) at 10uM": -30.9}, {"smiles": "Cn1c(=O)c2c(nc(NCc3ccco3)n2CCc2ccccc2)n(C)c1=O", "hERG current change (%, negative = inhibition) at 10uM": -25.8}, {"smiles": "O=C(NC1CCCCCC1)C(=S)NCc1ccccc1", "hERG current change (%, negative = inhibition) at 10uM": 5.94}, {"smiles": "C#C[C@]1(O)CCC2C3CCC4=Cc5oncc5CC4(C)C3CCC21C", "note": "(stereo partly drawn)", "hERG current change (%, negative = inhibition) at 10uM": -3.2}, {"smiles": "CN(Cc1nc(-c2cccc(Cl)c2)no1)C1CCOCC1", "hERG current change (%, negative = inhibition) at 10uM": -22.7}, {"smiles": "O=C(Cc1ccc(-n2c(=O)c3ccccc3n(Cc3cccc([N+](=O)[O-])c3)c2=O)cc1)NCC1CCCO1", "note": "(stereo not drawn)", "hERG current change (%, negative = inhibition) at 10uM": -11.1}, {"smiles": "O=S(=O)(Nc1cccc(-c2cn3c(n2)SCC3)c1)c1ccccc1", "hERG current change (%, negative = inhibition) at 10uM": 3.05}, {"smiles": "CN(Cc1ccccc1)C(=O)c1cccc(N2C(=O)C3CC=CCC3C2=O)c1", "note": "(stereo not drawn)", "hERG current change (%, negative = inhibition) at 10uM": 16.3}, {"smiles": "C=CCN1C(=O)C(=O)N(Cc2nc3ccccc3s2)C1=O", "hERG current change (%, negative = inhibition) at 10uM": 13}, {"smiles": "O=C(Nc1ccc(F)c(Cl)c1)C1CCCCC1", "hERG current change (%, negative = inhibition) at 10uM": -24.1}, {"smiles": "Cc1nnc(NC(=O)c2cc(-c3ccncc3)nc3c(C)cccc23)s1", "hERG current change (%, negative = inhibition) at 10uM": 24.5}, {"smiles": "CCOC(=O)C(NCc1ccc(F)cc1)(NC(=O)c1ccccc1)C(F)(F)F", "note": "(stereo not drawn)", "hERG current change (%, negative = inhibition) at 10uM": -6.41}, {"smiles": "Cc1cc(C)nc(N/C(=N/S(=O)(=O)Cc2ccccc2)Nc2ccccc2)n1", "hERG current change (%, negative = inhibition) at 10uM": 8.02}, {"smiles": "CC(=O)Nc1cccc(C(=O)OCc2csc(CC(=O)Nc3ccccc3C)n2)c1", "hERG current change (%, negative = inhibition) at 10uM": -14}, {"smiles": "O=C(COC(=O)C1CC1)Nc1ccc(OC(F)F)cc1", "hERG current change (%, negative = inhibition) at 10uM": -13.9}, {"smiles": "COc1ccc(C/C(C)=N/NC(=S)Nc2ccc(C(C)C)cc2)cc1", "hERG current change (%, negative = inhibition) at 10uM": 15.4}, {"smiles": "c1ccc(-n2nnnc2-c2cccnc2)cc1", "hERG current change (%, negative = inhibition) at 10uM": -5.3}, {"smiles": "C[C@H](NC(N)=O)C(=O)Nc1ccc(N2CCOCC2)c(S(=O)(=O)Nc2ccc(Cl)cc2)c1", "hERG current change (%, negative = inhibition) at 10uM": 11.4}, {"smiles": "COC(=O)c1c[nH]n2c(=O)cc(CCl)nc12", "hERG current change (%, negative = inhibition) at 10uM": 5.31}, {"smiles": "O=C(CSc1nnnn1-c1ccccc1)NC(=O)NCc1ccco1", "hERG current change (%, negative = inhibition) at 10uM": -8.79}, {"smiles": "O=C(CSc1nnc2ccccn12)NCCc1ccc(Cl)cc1", "hERG current change (%, negative = inhibition) at 10uM": -14.9}, {"smiles": "CC(=O)c1ccc(OC(=O)c2ccc(Br)o2)cc1", "hERG current change (%, negative = inhibition) at 10uM": -3.64}, {"smiles": "CCN(CC)c1ccc(CNc2nc3ccccc3n2CCN2CCCCC2)cc1", "hERG current change (%, negative = inhibition) at 10uM": -74.5}, {"smiles": "O=C(CSc1n[nH]c(=O)n1Cc1ccco1)Nc1ccccc1Cl", "hERG current change (%, negative = inhibition) at 10uM": -3.39}, {"smiles": "CCCCSc1nc2sc3c(c2c(=O)[nH]1)CCC3", "hERG current change (%, negative = inhibition) at 10uM": -4.45}, {"smiles": "CCOC(=O)C1(CCOc2ccccc2)CCN(Cc2cccc(-n3cccn3)c2)CC1", "hERG current change (%, negative = inhibition) at 10uM": -79.3}, {"smiles": "CN1CCN(S(=O)(=O)c2ccc(NC(=O)COc3ccccc3)cc2)CC1", "hERG current change (%, negative = inhibition) at 10uM": 19.1}, {"smiles": "O=C(c1ccc(-c2cccc(Cl)c2Cl)o1)N1CCOCC1", "hERG current change (%, negative = inhibition) at 10uM": -19.2}, {"smiles": "CNc1nc(CCN2C(=O)c3ccccc3C2=O)cs1", "hERG current change (%, negative = inhibition) at 10uM": 6.81}, {"smiles": "O=S(=O)(c1ccccc1)c1nc(-c2ccc(F)cc2)oc1NCC1CCCO1", "note": "(stereo not drawn)", "hERG current change (%, negative = inhibition) at 10uM": -34.6}, {"smiles": "CCOc1ccc(C(C(=O)NC2CCCC2)N(C(=O)c2snc(C(N)=O)c2N)C2CCCC2)cc1", "note": "(stereo not drawn)", "hERG current change (%, negative = inhibition) at 10uM": -51.1}, {"smiles": "CCc1ccc(N(C(C)=O)C2C=CS(=O)(=O)C2)cc1", "note": "(stereo not drawn)", "hERG current change (%, negative = inhibition) at 10uM": -6.3}, {"smiles": "COc1ccc(-c2cc(C(=O)NC3CCCC3)c3ccccc3n2)cc1", "hERG current change (%, negative = inhibition) at 10uM": -21.6}, {"smiles": "CC(C)CN(C(=O)COC(=O)Cc1c[nH]c2ccccc12)c1c(N)n(Cc2ccccc2)c(=O)[nH]c1=O", "hERG current change (%, negative = inhibition) at 10uM": 13.4}]}]}
